Data: PubChem BioAssay AID1346428 (National Center for Advancing Translational Sciences (NCATS), 2018)
The whole screen tested about 48,000 compounds, of which about 1,200 (2.5%) were called active. Inconclusive results (about 2%) are left out.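 Rule for the calls: active = activation of at least 60% and not above a set upper limit (about 1 call in 100 departs from these limits); inconclusive = activation of 40% to 60%, or above that upper limit; inactive = activation under 40%.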 The list shows a part of the results.

target: Probable G-protein coupled receptor 32 (Homo sapiens) (UniProt O75388); assay: qHTS for Agonists of Human Resolvin D1 Receptor DRV1; conditions: CHO-K1 GPR32 beta-arrestin PathHunter luminescence, 90 min; at 76.9 µM; hits give high values; zero percent set by DMSO-only wells; note: 0% is about no effect
How it was run: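 Cells are plated overnight, treated with compounds in DMSO for 90 minutes at 37 °C, and developed with PathHunter detection reagent for 1 hour before luminescence is read; signal reflects beta-arrestin binding to GPR32 in engineered CHO-K1 cells.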

UniProt O75388, sequence (O75388 whole entry, looked up): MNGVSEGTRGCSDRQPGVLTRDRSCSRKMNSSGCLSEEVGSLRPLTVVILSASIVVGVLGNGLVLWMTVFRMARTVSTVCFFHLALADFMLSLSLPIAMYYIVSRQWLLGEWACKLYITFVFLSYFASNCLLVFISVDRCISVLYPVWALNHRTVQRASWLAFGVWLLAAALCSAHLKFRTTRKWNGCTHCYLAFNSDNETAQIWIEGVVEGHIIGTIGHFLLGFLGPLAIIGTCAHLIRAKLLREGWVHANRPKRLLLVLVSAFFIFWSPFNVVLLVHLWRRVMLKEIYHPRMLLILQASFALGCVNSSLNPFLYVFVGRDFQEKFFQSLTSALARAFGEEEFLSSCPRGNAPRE

Compound | activation
Cc1ccc(CCNC(=O)c2nnc(Cc3cccc(F)c3)o2)cc1 | inactive: 14.5%
CCCCN(CC)CCCNC(=O)c1cn(CC(C)C)c(=O)c2c1c1ccccc1n2C | inactive: 0.188%
Cn1c(=O)c2c(nc(NCCc3ccccc3)n2Cc2cccc(Br)c2)n(C)c1=O | inactive: 40.1%
COc1ccc2c(c1)CCc1c(C(=O)Nc3c(C)nn(Cc4ccccc4Cl)c3C)noc1-2 | inactive: 0.53%
O=c1n(Cc2ccc(F)cc2Cl)c2ccccc2c2nc(-c3ccccc3)nn12 | inactive: -0.429%
COc1ccc(S(=O)(=O)NCC(c2cccs2)S(=O)(=O)c2ccc(C)cc2)cc1F (stereo not drawn) | inactive: -17.5%
Cc1[nH]c2ccc(F)cc2c1CCNC(=O)c1cc2cc(Cl)ccc2oc1=O | inactive: 31.5%
CC(C)Oc1ccc(C(=O)Nc2ccc3oc(-c4ccncc4)nc3c2)cc1 | inactive: -2.03%
CC1Cc2ccccc2N1S(=O)(=O)c1nnc(NC(=O)c2ccccc2Br)s1 (stereo not drawn) | inactive: 1.75%
COc1ccc(-c2cn3nc(N4CCCC(C(=O)Nc5ccc(Cl)cc5C)C4)sc3n2)cc1 (stereo not drawn) | inactive: -7.1%
COc1cc(NC(=O)C(NC(=O)C2CCC(C)CC2)C(C)C)cc(OC)c1OC (stereo not drawn) | inactive: -2.44%
Cc1ccc(CNC(=O)c2c[nH]c3ccc(S(=O)(=O)Nc4ccc(C(C)C)cc4)cc3c2=O)cc1 | inactive: 6.61%
COCCn1c(CNC(=O)c2cc([N+](=O)[O-])ccc2Cl)nc2cccnc21 | inactive: 0.933%
COc1ccc(Cl)cc1NS(=O)(=O)c1c(C)nc2scc(C)n2c1=O | inactive: 0.932%
Cc1ccccc1-n1c(=O)c2ccccc2n(Cc2ccc(F)cc2)c1=O | inactive: -4.69%
CCOC(=O)c1cnc2c(Cl)c(Cl)ccc2c1Nc1ccc(N(C)C)cc1 | inactive: -1.03%
COC(=O)c1sc2cccc(F)c2c1S(=O)(=O)NCc1ccc(F)cc1 | inactive: -3.69%
COc1ccc(C2CC(=O)N(Cc3cccc(C)c3)c3c2c(C)nn3-c2nc(C)cc(C)n2)c(OC)c1 (stereo not drawn) | inactive: -5.73%
O=C(Nc1ccc(F)cc1)c1ncn(-c2ccccc2)n1 | inactive: 1.86%
COc1ccc(-n2c(=O)c3c4c(sc3n(Cc3c(F)cccc3Cl)c2=O)CN(C(C)=O)CC4)cc1OC | inactive: -11.2%
Cc1ccc(-c2noc(CN(C(=O)c3ccc(C(C)(C)C)cc3)C(C)C)n2)cc1 | inactive: 21.8%

Compound | activation
O=S(=O)(c1ccccc1)n1nc(-c2ccc(Cl)cc2)nc1NCc1ccc(F)cc1 | active: 71.6%
COc1cccc(NC(=O)Cn2c(=O)c3cccn3c3ccc(F)cc32)c1 | inactive: -11.7%
CCCc1cc(C(N)=S)ccn1 | inactive: -66.2%
CCOC(=O)c1ccccc1NC(=O)CN(c1cc(C(F)(F)F)ccc1Cl)S(C)(=O)=O | inactive: -10.4%
O=C(Cn1ccc2cc(S(=O)(=O)N3CCCCCC3)ccc21)NCCc1ccccc1Cl | inactive: -10.1%
Cc1ccc(CCNC(=O)CCS(=O)(=O)c2ccc3c(c2)oc(=O)n3C)cc1 | inactive: 30.7%
COc1cccc(N2CCN(S(=O)(=O)c3ccc(-c4cc(C(F)(F)F)on4)s3)CC2)c1 | inactive: 5.53%
CCCCSCCCNC(=O)c1cn(CC)c2ccc(S(=O)(=O)N(C)C3CCCCC3)cc2c1=O | inactive: -17.2%
COc1cccc(-c2nc(SCC(=O)NCc3ccccc3)c3c(=O)n(C)c(=O)n(C)c3n2)c1 | inactive: -8.23%
CCOc1ccccc1NC(=O)Nc1ccccc1OCc1cc(=O)n2ccccc2n1 | inactive: 21.5%
COc1cc(Cl)c(C)cc1NC(=O)Cn1cnc2sc(C)c(S(=O)(=O)N3CCCCC3)c2c1=O | inactive: -8.53%
CCOC(=O)c1scc(-c2ccc(C)cc2)c1S(=O)(=O)Nc1cc(C)ccc1C | inactive: -14.8%
CN(CC(=O)NCc1ccc(Cl)cc1)S(=O)(=O)c1ccc2c(c1)c(=O)n(C)c(=O)n2C | inactive: -2.7%
Cc1ccc(CCNC(=O)c2ccc(CS(=O)(=O)Cc3ccc(Cl)cc3)o2)cc1 | inactive: 7.47%
CCOc1ccccc1NC(=O)Cn1c(=O)n(-c2ccc(C)c(C)c2)c(=O)c2c(C)c(C(=O)N(C)C)sc21 | inactive: -3.34%
COc1cc(/C=C/C(=O)O[C@H]2CC[C@]34C[C@]35CC[C@]3(C)[C@@H]([C@H](C)CCC=C(C)C)CC[C@@]3(C)[C@@H]5CC[C@H]4C2(C)C)ccc1O | inactive: 27.9%
O=C(NCc1ccc(Cl)cc1)C(=O)NCC(c1cccnc1)N1CCN(c2ccccc2)CC1 (stereo not drawn) | inactive: -2.43%
CCS(=O)(=O)c1c(S(=O)(=O)CC)c2cc(C(C)(C)C)ccn2c1C(=O)c1ccc(F)cc1 | inactive: -4.34%
Cc1cc2c(cc1C)NC(CC(=O)Nc1cccc(C)c1C)C(=O)N2 (stereo not drawn) | inactive: -59.4%
COc1cccc(-c2nnc(SCC(=O)N3CCc4ccccc43)o2)c1 | inactive: 4.41%
CC(Nc1ncnc2c1cnn2-c1cccc(Cl)c1)c1ccccc1 (stereo not drawn) | active: 91.4%

Compound | activation
Cc1ccc(NC(=O)N(Cc2c[nH]c3ccccc23)C2CCCCCC2)cc1C | inactive: -0.127%
COc1ccc(CCNC(=O)Cc2c(C)c3ccc(O)c(C)c3oc2=O)cc1OC | inactive: 0.184%
O=c1n(Cc2ccc([N+](=O)[O-])cc2)c2ccccc2c2nc(-c3ccccc3)nn12 | inactive: -8.45%
Cc1cc(C)cc(-n2c(SCC(=O)Nc3ccccc3F)nc3c(oc4ccccc43)c2=O)c1 | inactive: 6.48%
Cc1ccc(Cn2cnc3nc4c(cc3c2=O)CCCC4)cc1 | inactive: -4.78%
CCOc1ccc(NC(=O)c2cccc3c(=O)c4c([nH]c23)CCCC4)cc1 | inactive: 8.06%
Cn1c(=O)n(C)c2cc(CNCc3ccc(F)cc3)ccc21 | inactive: 2.13%
Cc1ccc(C(=O)N2CCc3cc(CNC(=O)c4ccccc4F)ccc32)cc1 | inactive: -9.6%
Cc1c(NC(=O)Nc2ccccc2C(F)(F)F)c(=O)n(-c2ccccc2)n1C | inactive: -0.0635%
CCOc1ccc(C2=C(C(C)=O)Sc3nnc(C)n3N2C(C)=O)cc1 | inactive: -77.9%
COc1ccc(CCNC(=O)CCN2N=C(c3ccccc3)CCC2=O)cc1OC | inactive: -6.74%
O=C(CS(=O)(=O)c1ccc(Cl)cc1)Nc1nc2ccc(Br)cc2s1 | inactive: 9.31%
CCc1ccc(NC(=O)C2(c3cccs3)CCOCC2)cc1 | inactive: -7.73%
Cc1oc2ncn(CC(C)C)c(=O)c2c1C(=O)N1CCN(c2ccccc2F)CC1 | inactive: -10.2%
Cc1cc(C)c(NC(=O)CN(c2ccccc2)S(=O)(=O)N(C)C)c(C)c1 | inactive: 2.8%
CSc1ccc(CCNC(=O)CN2C(=O)COc3ccc(S(=O)(=O)N4CCCC4)cc32)cc1 | inactive: 2.73%
O=C(Nc1ccc2oc(-c3ccc4ccccc4c3)nc2c1)c1cccc(Cl)c1Cl | inactive: 16.5%
Cc1ccccc1NC(=O)c1cc2ccccc2o1 | inactive: 11.1%
CCOc1ccc(NC(=O)c2cnn3c2NC(c2ccccc2)=CC3c2cccc(OC)c2OC)cc1 (stereo not drawn) | inactive: -40%
Clc1ccc(-c2nnn3c2nc(N2CCCCC2)c2ccccc23)cc1 | inactive: -3.6%
CCN1c2ccccc2-c2nc(SCC(=O)Nc3cc(C)c(Cl)cc3OC)ncc2S1(=O)=O | inactive: -19.4%

Compound | activation
Oc1c(C(c2cccc(Cl)c2)N2CCOCC2)sc2nc(-c3ccco3)nn12 (stereo not drawn) | inactive: 20.7%
O=C(Nc1ccc(F)c(Cl)c1)C1CCN(c2ncccn2)CC1 | inactive: -16.4%
COc1ccc(CCNC(=O)c2c3c(nc4ccccc24)C(=O)N(C2CCCCC2)C3)cc1OC | inactive: 2.89%
Cc1ccc(C)c(N2CCN(c3nc4ccccc4n4nnnc34)CC2)c1 | inactive: -8.3%
O=C(COc1ccc(F)cc1)NCc1ccc2c(c1)CCN2C(=O)c1ccc(F)cc1 | inactive: -38.3%
Cc1cccc(OCC(=O)Nc2ccc(S(=O)(=O)N(Cc3ccccc3)c3ccccc3)cc2)c1 | inactive: 10.2%
Cc1cc(-n2c(C)nc3ccccc3c2=O)ccc1NC(=O)c1cccc([N+](=O)[O-])c1C | inactive: 14.5%
Cc1cc(Br)cc(C)c1OCC(=O)Nc1ccc(S(=O)(=O)Nc2ncccn2)cc1 | inactive: -1.07%
COCCn1c(=O)[nH]c2cc(C(=O)N3CCN(c4ccc(F)cc4)CC3)ccc2c1=O | inactive: 38.8%
CCc1nn(CC(=O)NCC(C)c2ccccc2)c(=O)c2cc3c(OC)cccc3n12 (stereo not drawn) | inactive: -6.18%
COC(=O)c1ccccc1NC(=O)C1CCCN(C(=O)c2cnn(-c3ccc(F)cc3)c2-n2cccc2)C1 (stereo not drawn) | inactive: 25.5%
Cc1oc(-c2ccccc2F)nc1Cn1c(SCc2cccc(Cl)c2)nc2ccncc21 | inactive: -19%
Cc1ccc(-n2ncc3c(N4CCN(Cc5ccccc5)CC4)ncnc32)cc1C | active: 75.3%
N#C/C(=C\c1ccc(-c2ccc(Br)cc2)o1)C(=O)Nc1ccccc1O | inactive: 12.1%
O=C(NCCc1csc(-c2ccc(C(F)(F)F)cc2)n1)c1ccccc1Cl | inactive: -2.15%
CCOCCc1nn2c(=O)cc(COC(=O)c3ccccc3Br)nc2s1 | inactive: -16.4%
Cc1ccc(CNC(=O)C(=O)NCC(c2cccs2)S(=O)(=O)c2ccccc2)cc1 (stereo not drawn) | inactive: -5.71%
CC(Cc1cccc(C(F)(F)F)c1)NCCOC(=O)c1ccccc1 (stereo not drawn) | active: 63.4%
CCCn1c(=N)c(C(=O)NCc2ccccc2)cc2c(=O)n3cccc(C)c3nc21 | inactive: -2.67%
CCN(Cc1ccccc1)C(=O)CN1C(=O)COc2ccc(S(=O)(=O)N3CCOCC3)cc21 | inactive: -36.6%
